Laboratory results: the supplement of paper PMC10300432
Substitutions are numbered along the chain they refer to. Recombinant human monoclonal antibodies (heavy:light variable regions). ELISA EC50 on the named antigen, from 10 µg/ml down; IC50 against spike pseudovirus on HT1080-ACE2 cells, 48 h; lower = stronger. Calls: IC50 above 1,000 ng/ml = non-neutralizing; EC50 above 1,000 ng/ml = non-binder.

B1: C5201 (protein)
chain 1: QVQLVESGGGVVQPGRSLRLSCAASGFSFRNHAMNWVRQAPGKGPEWVGVIAYDGSSKWYADSVKGRFTISRDNSKNTLILQMTSLRPEDTAVYYCARDWMRAPYDSNGVDAFDVWGHGTMVTVSS
chain 2: DIQMTQSPSSLSASVGDRVTIACRASQSVGNYLNWYQQKPGKAPNLLIYAASTLHSGVPSRFSGSGSGTDFTLTISSLQPEDFATYYCQQSYTTLALTFGGGTKVEIK
B2: C5190 (protein)
chain 1: EVQLLESGGALVQPGGSLRLSCAASGFTFSGYVMTWVRQAPGKGLEWVASISGSGGARNHADFVKDRFTISRDNSKNTLYLQMNSLRAEDTAMYYCTKLPMIATSGTGGGDFWGQGTLVTVSS
chain 2: DIQMTQSPSTLSASVGDRVTITCRASESISSWLAWYQQKPGQVPKLLIYKASSLESGAPSRFSGSGSGTEFTLTISSLQPDDSATYYCQQYYSWWTFGQGTKVEIK
B3: C5042 (protein)
chain 1: QVQLVQSGAEVKKPGASVKVSCKASGYTFTSYGISWVRQAPGQGLEWMGWISAYSGDTNYAQKLHDRVTMTTDTSTSTVYMELRSLRSDDTAVYYCARVGSAYCSTGSCYYFDYWGQGTLVTVSS
chain 2: EIVMTQSPATLSVSPGERATLSCRASQSISDNLAWYQQKPGQAPRLLMYGASTRATGIPARFSGSGSGTEFTLTISSLQSEDFAVYYCQPYDNWPPWFTFGPGSRVEIK
B4: C5194 (protein)
chain 1: EVQLLESGGALVQPGGSLRLSCAASGFTFSNYVMNWVRQAPGKGLEWVSAISGSGGNVDYADSVKGRFTISRDNSKNTLYLQMNSLRAEDTAVYYCAKGDLLWSGELFWSYYGMDVWGQGTTVTVSS
chain 2: QSVLTQPPSASGTPGQRVTISCSGSSSNIGNNFVNWYQQLPGTAPKLLIYSNNQRPSGVPDRFSGSKSGTSASLAINGLQSEDEADYYCAAWDDSLNGVEFGGGTKLTVL
B5: C5191 (protein)
chain 1: EVQLVQPGAEMKRPGESLKISCKASGYNFHYSWIGWVRQMPGKGLEWMGFIYPGDSDTRYSPSFQGQVTISADKSISTAYLQWSSLKASDTAMYYCTRLGGTVTNREYFQHWGQGTLVTVSS
chain 2: DIQMTQSPSSLSASVGDRVTITCQASQDINNYLNWYQQKPGKAPKLLIYDASNLETGVPSRFSGGGSGTDFTFTISSLQPEDIATYYCQQFHLLPLTFGGGTKVEIK
B6: C5195 (protein)
chain 1: QLQLQESGPGLVKPSETLSLTCTVSSGSLSIGSYFWGWVRQSPVKGLEWMGSISHSGTTYYNPSLKSRVSVSIDTSKNQFSLKLSSVTAADTSLYYCARHLGAFDSWGQGTLVTVSS
chain 2: DIQMTQSPSSLSASVGDRVTITCRASQGISNSLAWYQQKSGKAPNLLLYSASTLESGVPSRFSGSGSGTDFTLTINSLQPEDFATYYCQQYYSTPPVTFGPGTKVDIK
B7: C5200 (protein)
chain 1: QLQLQESGPGLVKPSETLSLTCTVSGGSISIGSYYWAWIRQPPEKRLEWIGNVHNRGSTYYNPSLHSRVTISADTSKNQVSLRLSSVTAADTAVYFCARQLGPVDYWGQGILVTVSS
chain 2: B6 chain 2 with G28A, Q37L, S40P, N45K, S50A, N76S, T94P, V97T, P101Q, D106E
B8: C5203 (protein)
chain 1: EVQLVESGGGLVQPGGSLRLSCAASGVIVSRNYMNWVRQPPGKGLEWVSVIYSGGSTFYADSVKGRFTISRHDSKNTLFLQMNSLETEDTAVYYCARGGGHYYGMDVWGQGTTVTVSS
chain 2: DIQLTQSPSFLSASVGDRVTITCRASQGISDYLAWYQQKPGKAPKLLIYGASTLQRGVPSRFSGSGSETEFTLTISNLQPEDFATYYCQQLNSNPPFPFGPGTKVDIK
B9: C5197 (protein)
chain 1: QVQLVETGGGVVQPGSSLRLSCAASGFSFSGYGMHWVRQAPGKGLEWVAASWADGRNKFYGESVRGRFTISRDNSKSTLYLQMTSLGAEDTAVYYCARGEHVVMATAMPGYYFDYWGQGTLVTVSS
chain 2: DIQMTQSPSTLSASVGDRVTITCRASQSISTWLAWYQQKPGKAPKLLIYKASYLESGVPSRFSGSGSGTEFTLTISSLLPDDFATYYCQQYNSYSTFGQGTKLEIK
B10: C5192 (protein)
chain 1: EVQLLESGGALVQPGGSLRLSCAASGFTFSSYAMSWVRQAPGKGLEWVSGIGGRGADTYYADSVKGRFTISRDNSKNTMFLQMNSLRAEDTAVYYCAKDPLWVQPDYFDYWGQGTLVTVSS
chain 2: DIQMTQSPSSVSASVGDRVTITCRASQGIGSWLAWYQQKPGKAPKLLIYAASSLESGVPSRFSGSGSGTEFTLTISSLQPEDFATYYCQEASSLLLTFGGGTKVEIK
B11: C5202 (protein)
chain 1: QVQLVESGGGVVQPGKSLRLSCEASGFTFRHYAMHWVRQAPGKGLEWVAFISYDGDKEYYADSVKGRYTISRDNSKNTLFLQINSLRAEDTAVFYCAKMGGGPYYENGGYFDYWGQGTLVTVSS
chain 2: DIQMTQSPSSLSASVGDRITITCQASQDISNSLNWYQQKPGKAPKLLIYEASNLETGVPSRFSGSGSGTDFSFTISSLQPEDFATYYCQHYDYPPLYTFGQGTKLEIK
B12: C5193 (protein)
chain 1: EVQLLEFGGGLVQPGGSLRISCAASGFTFSSLAMGWVRQAPGKGLEYVSGISGRGERTDYADSVKGRFTISRDNSQNTLFLQMDSLRADDTAVYYCVKSAFGLVQGEEFDYWGQGTLVTVSS
chain 2: DIQMTQSPSTLSTSVGDRVTITCRARQSIGNWLAWYQQTPGKAPKLLIYKASSLQSGVPSRFSGSGSGTEFTLTISSLQPDDFATYYCQQYTSSSTFGQGTKVEIK
B13: C5199 (protein)
chain 1: QVQLQESGPGVVKPSGTLSLTCVVAGGSISGISWWSWVRQSPGKGLEWIGEISHSGSTAYNPSLMSRVTISVDKSKSQFSLKLTSMTAADTAVYFCARVSGFFDYWGQGTLVTVSS
chain 2: DIQMTQSPSSLSASVGDRVTITCRVSQDIGRSLAWYQQKPGKAPKLLVYEASTLESGVPSRFSGRRSGTDYILTINSLQPDDFATYYCQQYFTTRGFGGGTKVEIK
B14: C5196 (protein)
chain 1: QVQLQESGPGLVKPSVTLSLTCAVSGGSISGPAWWGWVRQPPGKGLEWIGEISDGGKAEYNPSLKGRLTIGVDRSRNLFSLKLSSLTAADTAVYYCARVMGIFDYWGQGSLVTVSS
chain 2: DIQMTQSPASLSASVGDRVTITCRVSQGIGNSLAWYQQKPGKAPKLLLYASSTLESGVPSRFSGSGSGTDFTLTISSLQPEDFATYYCQQYYSFRTFGQGTKVEIK
B15: C5204 (protein)
chain 1: QVQLVQSGAEVKKPGSSVKVSCKTSGGTFSSYTISWVRQAPGQGLEWMGRIIPALHIPNYAQRFQDRVTFTADKSTSTAYMELSSLRSEDTAVYYCARDRSSSGWGNWFDPWGQGTLVTVSS
chain 2: QSVLTQPPSVSGAPGQRVTLSCTGSNSNIGAGYDVHWYQQLPGTAPKLLIYGNNNRPSGVPDRFSGSKSDSSASLAITGLQAEDEADYYCQSYDSSLTDVFGTGTKVTVL

What was measured:
[1] = biological target: SARS-CoV-2 Omicron BA.1 spike pseudovirus; assay: pseudovirus neutralization IC50; higher = weaker neutralization
Method: (§1)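 Single-round luciferase reporter pseudovirus mixed with antibody dilutions and put on HT1080-ACE2 clone 14 cells for 48 h; signal relative to no-antibody wells, four-parameter fit.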

[2] = biological target: SARS-CoV-2 Omicron BA.4/5 spike pseudovirus; assay: as above
Method: as §1

[3] = biological target: SARS-CoV-2 Wuhan-Hu-1 spike pseudovirus; assay: as above
Method: as §1

[4] = biological target: SARS-CoV-2 Wuhan-Hu-1 spike receptor-binding domain; assay: ELISA binding EC50; higher = weaker binding; ELISA of recombinant human antibody on coated antigen, from 10 µg/ml in fourfold dilutions; four-parameter fit.

Binder | pseudovirus neutralization IC50 [1] | pseudovirus neutralization IC50 [2] | pseudovirus neutralization IC50 [3] | ELISA binding EC50 [4]
B1 | > 1000 ng/mL | > 1000 ng/mL | 563 ng/mL | 3.77 ng/mL
B2 | 710 ng/mL | 26.9 ng/mL | 18.3 ng/mL | 3.33 ng/mL
B3 | 88.7 ng/mL | 365 ng/mL | 89.7 ng/mL | 5.06 ng/mL
B4 | 247 ng/mL | 260 ng/mL | 48.6 ng/mL | 2.6 ng/mL
B5 | 0.821 ng/mL | 0.721 ng/mL | 1.57 ng/mL | 2.94 ng/mL
B6 | > 1000 ng/mL | > 1000 ng/mL | 1.15 ng/mL | 2.38 ng/mL
B7 | > 1000 ng/mL | > 1000 ng/mL | 1.96 ng/mL | 3.3 ng/mL
B8 | > 1000 ng/mL | > 1000 ng/mL | 37.4 ng/mL | 6.04 ng/mL
B9 | 4.17 ng/mL | > 1000 ng/mL | 3.31 ng/mL | 2.89 ng/mL
B10 | 2.33 ng/mL | > 1000 ng/mL | 1.4 ng/mL | 2.09 ng/mL
B11 | > 1000 ng/mL | > 1000 ng/mL | 896 ng/mL | 3.78 ng/mL
B12 | 8.57 ng/mL | 13.1 ng/mL | 3.59 ng/mL | 2.05 ng/mL
B13 | 1.65 ng/mL | 4.75 ng/mL | 1.6 ng/mL | 2.35 ng/mL
B14 | 1.61 ng/mL | 13.2 ng/mL | 1.62 ng/mL | 2.51 ng/mL
B15 | 46.5 ng/mL | > 1000 ng/mL | 17.9 ng/mL | 3.44 ng/mL
